The values that follow come from a collection of fitness landscapes (doi:10.1038/s41467-024-54723-y).

Whole data set: some 18,000 sequences, median “TetR repression strength (sort-seq, GFP reporter)” near 0.23, cut for the highest 2% near 0.68. Some of the results follow.

Sequence of UniProt P04483 (P04483 whole entry): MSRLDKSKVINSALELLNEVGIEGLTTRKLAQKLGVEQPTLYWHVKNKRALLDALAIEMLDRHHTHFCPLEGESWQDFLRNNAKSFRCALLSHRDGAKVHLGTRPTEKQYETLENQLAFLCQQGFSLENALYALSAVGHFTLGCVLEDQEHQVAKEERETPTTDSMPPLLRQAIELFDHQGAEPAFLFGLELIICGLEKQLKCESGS

The target in the test is TetR (class B, Tn10) (UniProt P04483). Put plainly: TetR repression strength (sort-seq, GFP reporter) (relative to tetO2 = 1); higher = stronger repression. The settings on record: E. coli. The method in brief:
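Repression strength is the top bin index plus one minus the read-weighted mean bin, relative to the unaltered operator's value. A low-copy library in E. coli SIG10-MAX randomized eight operator positions between a constitutive promoter and sfGFP, with TetR expressed constitutively; cells grew 5 h at 37 °C in LB with 50 µg/mL chloramphenicol and 10^6 were FACS-sorted into 13 bins that were each Illumina-sequenced. Three independent transformations were averaged, keeping only members with ≥30 reads in all replicates and CV ≤0.5.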
TCCCACTCAGTGGTGGAGA had a TetR repression strength of 0.236. In the case of TCCCATTTAGTGTTGGAGA, the TetR repression strength worked out at 0.312. To TCCCTCCTAGTGCGGGAGA belongs 0.115; to TCCCCAAGAGTGTGTGAGA, 0.249. TCCCAACAAGTGTCAGAGA registered a TetR repression strength of 0.341. Then TCCCTATGAGTGGTCGAGA, with 0.321; and TCCCATTTAGTGACAGAGA, with 0.461; and TCCCTGGTAGTCTCAGAGA, with 0.0898. Then TCCCGTCGAGTGGCGGAGA, with 0.193; and TCCCAGCAAGTTGCGGAGA, with 0.201. In turn, TCCCATCTAGTGCGTGAGA yielded a TetR repression strength of 0.708.

With TCCCTAATAGTGCGGGAGA, the TetR repression strength stood at 0.209. To TCCCGTTCAGTCTATGAGA belongs 0.172; to TCCCAAGGAGTTGAAGAGA, 0.259. To TCCCTAGTAGTGCAAGAGA belongs 0.538.

TCCCGTCCAGTCACTGAGA: the TetR repression strength was found to be 0.215. Then TCCCGGACAGTGGTGGAGA, with 0.188. As for TCCCTGTAAGTACTGGAGA, the TetR repression strength worked out at 0.126. Then TCCCGAGGAGTTAGCGAGA, with 0.463; and TCCCTACGAGTGCTGGAGA, with 0.388; and TCCCGTAAAGTTGGCGAGA, with 0.317.

TCCCGGTGAGTCGAGGAGA returned a TetR repression strength of 0.272. Consider TCCCAACGAGTTCGGGAGA, for which the TetR repression strength was found to be 0.277. TCCCTAACAGTGCCTGAGA yielded a TetR repression strength of 0.128. TCCCTGGTAGTAATAGAGA: the TetR repression strength is 0.259. Then TCCCCCAGAGTTGTGGAGA, with 0.224; and TCCCAATAAGTCAGAGAGA, with 0.11; and TCCCAGCGAGTTGTGGAGA, with 0.174.

TCCCGGTGAGTACAGGAGA returned a TetR repression strength of 0.261. Consider TCCCGGGGAGTACACGAGA, for which the TetR repression strength amounted to 0.107. As to TCCCGGAGAGTCGGGGAGA, the TetR repression strength was determined as 0.287. Then TCCCAGGGAGTGCCTGAGA, with 0.22; and TCCCTTCAAGTGTTAGAGA, with 0.433. Consider TCCCTACTAGTGTTTGAGA, for which the TetR repression strength is 0.289.

TCCCCACTAGTCGGCGAGA showed a TetR repression strength of 0.289.

Sequence TCCCCTAAAGTTGTGGAGA registered a TetR repression strength of 0.0567. The sequence TCCCAGGAAGTGATTGAGA had a TetR repression strength of 0.266. TCCCTAGCAGTTGGAGAGA displayed a TetR repression strength of 0.471.

The sequence TCCCGCTAAGTGCTAGAGA displayed a TetR repression strength of 0.36.

TCCCACACAGTGTAGGAGA came in with a TetR repression strength of 0.274. Then TCCCGGTTAGTCGGAGAGA, with 0.181. The sequence TCCCGTGGAGTGTATGAGA showed a TetR repression strength of 0.16. Then TCCCCTCTAGTAGCAGAGA, with 0.259; and TCCCTTTGAGTACGTGAGA, with 0.0564. In turn, TCCCTGCGAGTTGAGGAGA came in with a TetR repression strength of 0.254.

Regarding TCCCTTATAGTTGTCGAGA, the TetR repression strength stood at 0.0735.

Sequence TCCCAACGAGTATGCGAGA gave a TetR repression strength of 0.421. Consider TCCCAATGAGTGCTGGAGA, for which the TetR repression strength was determined as 0.352. On to TCCCAGGGAGTGTGGGAGA, for which the TetR repression strength was found to be 0.244.

In the case of TCCCATTGAGTGTTTGAGA, the TetR repression strength is 0.534.

Sequence TCCCGCGGAGTGTTGGAGA displayed a TetR repression strength of 0.281. To TCCCTTGGAGTTCGAGAGA belongs 0.389. The sequence TCCCGAAAAGTTAGGGAGA came in with a TetR repression strength of 0.145. Then TCCCTTGCAGTATGAGAGA, with 0.157; and TCCCTAGTAGTAGTTGAGA, with 0.434.

Take TCCCATAGAGTAGGTGAGA: the TetR repression strength is 0.0226. To TCCCTGCAAGTGCCTGAGA belongs 0.195.

Consider TCCCAAGAAGTTAGAGAGA, for which the TetR repression strength worked out at 0.3.

TCCCTGTTAGTTGGAGAGA returned a TetR repression strength of 0.118. To TCCCGTGGAGTTTGCGAGA belongs 0.202; to TCCCGGGTAGTAATGGAGA, 0.247. To TCCCTTCGAGTGTGCGAGA belongs 0.209. For TCCCGATAAGTGCTGGAGA, the TetR repression strength turned out to be 0.332.

The sequence TCCCTGGTAGTGCCAGAGA registered a TetR repression strength of 0.474. To TCCCGGGAAGTACGTGAGA belongs 0.102.

For the sequence TCCCAAGTAGTTTAAGAGA, the TetR repression strength is 0.375. To TCCCGATAAGTGGTAGAGA belongs 0.344. Regarding TCCCTAGTAGTCGCGGAGA, the TetR repression strength turned out to be 0.388. The sequence TCCCCGGGAGTACAGGAGA displayed a TetR repression strength of 0.353. TCCCGGCCAGTTGGGGAGA registered a TetR repression strength of 0.254.

On to TCCCGAGCAGTTTGTGAGA, for which the TetR repression strength turned out to be 0.104. Then TCCCAGTTAGTTGGGGAGA, with 0.303; and TCCCACATAGTCACAGAGA, with 0.496. In turn, TCCCTGGAAGTTACGGAGA gave a TetR repression strength of 0.316. Then TCCCGGCAAGTGCTTGAGA, with 0.155; and TCCCGCGGAGTTTAGGAGA, with 0.232; and TCCCGATAAGTGTGCGAGA, with 0.247.

Regarding TCCCTCGGAGTGTCGGAGA, the TetR repression strength was 0.127. As for TCCCGCATAGTATAGGAGA, the TetR repression strength came to 0.0705. As to TCCCAGCAAGTCTTAGAGA, the TetR repression strength worked out at 0.17. Then TCCCTTGGAGTTGTGGAGA, with 0.245; and TCCCTGGTAGTGAGGGAGA, with 0.148; and TCCCTAAAAGTTGTCGAGA, with 0.289.

As for TCCCAAAGAGTGGAGGAGA, the TetR repression strength is 0.388.

For the sequence TCCCATTTAGTGGGAGAGA, the TetR repression strength is 0.207.

For TCCCTCGTAGTCGAAGAGA, the TetR repression strength turned out to be 0.629. For TCCCAGATAGTACGGGAGA, the TetR repression strength is 0.0773. Then TCCCACAAAGTGCAGGAGA, with 0.125; and TCCCGGTTAGTGATTGAGA, with 0.508.

The sequence TCCCTCACAGTAACCGAGA registered a TetR repression strength of 0.376.

As for TCCCTAGGAGTAGGAGAGA, the TetR repression strength was found to be 0.268. For the sequence TCCCACCGAGTCAGGGAGA, the TetR repression strength is 0.346. To TCCCGAGGAGTTATAGAGA belongs 0.326.

In turn, TCCCAGCGAGTCTACGAGA displayed a TetR repression strength of 0.207. Then TCCCGACTAGTCTGCGAGA, with 0.232; and TCCCGTCCAGTGGACGAGA, with 0.16.

Sequence TCCCATGCAGTTTAGGAGA showed a TetR repression strength of 0.0346. TCCCATGGAGTAGTGGAGA had a TetR repression strength of 0.264. In turn, TCCCAGCAAGTGTGGGAGA showed a TetR repression strength of 0.0792.

TCCCGAGCAGTACTGGAGA came in with a TetR repression strength of 0.248. TCCCTGCTAGTGGTCGAGA yielded a TetR repression strength of 0.271.

On to TCCCGACGAGTGGCTGAGA, for which the TetR repression strength was found to be 0.387. Then TCCCTTCGAGTTACTGAGA, with 0.464; and TCCCAGATAGTGTGGGAGA, with 0.43. Then TCCCGTCAAGTACGTGAGA, with 0.182; and TCCCTGTCAGTGACAGAGA, with 0.636.

The sequence TCCCCCTGAGTGGGAGAGA displayed a TetR repression strength of 0.0912. Then TCCCCAAGAGTAGGAGAGA, with 0.149; and TCCCTGCCAGTCCGGGAGA, with 0.166. Then TCCCAGAGAGTGACTGAGA, with 0.12; and TCCCCCTTAGTAGTTGAGA, with 0.0838. Consider TCCCGCAGAGTAGCTGAGA, for which the TetR repression strength worked out at 0.265. To TCCCCTAGAGTTTGGGAGA belongs 0.36; to TCCCGGCGAGTTGGAGAGA, 0.242; to TCCCCAATAGTAGTCGAGA, 0.459. Take TCCCGAATAGTGTGTGAGA: the TetR repression strength was 0.4.

For the sequence TCCCTAGAAGTGGATGAGA, the TetR repression strength was 0.203. Then TCCCCCTTAGTCGCTGAGA, with 0.253; and TCCCTTTGAGTATCGGAGA, with 0.283. In turn, TCCCGACGAGTGAGTGAGA showed a TetR repression strength of 0.599. For TCCCGGGAAGTTGCGGAGA, the TetR repression strength worked out at 0.254. Then TCCCTGCAAGTGGCAGAGA, with 0.0298.

In turn, TCCCCAATAGTGCGTGAGA had a TetR repression strength of 0.118.

Take TCCCGTGAAGTACTGGAGA: the TetR repression strength is 0.311. To TCCCCGTCAGTAAAGGAGA belongs 0.402; to TCCCATGTAGTATAAGAGA, 0.203. Turning to TCCCGACCAGTATCGGAGA, the TetR repression strength worked out at 0.0957. To TCCCTCGTAGTAAAGGAGA belongs 0.13; to TCCCTAGCAGTCCGTGAGA, 0.132; to TCCCGGGCAGTGGGTGAGA, 0.275.
